Among all 390,000 compounds or so, about 150 (0.038%) were called active. This list was built around the results that the source calls inconclusive (neither active nor inactive); the mix of calls is not that of the screen. Calls follow the shape of the dose curve; as a rule, active = well fitted inhibition curve with a large enough effect; inconclusive = small, poorly fitted or top-dose-only effect; inactive = no such curve, though single readings can be large or run the other way. Potencies beside an inconclusive call are fits to weak or partial responses and may not hold up. Starred links: 1 amine or outer side, 2 acyl side, 3 side chain; linkers in the order of their positions; H or OH if unused. Positions of bridges follow the written chain, without caps; N, C: chain ends. Non-standard residues stand in square brackets, D forms with d. Residues, ends and D or L forms follow the SMILES beside them. Chains are numbered I, II in the order given. Actinocin(9to1) = Cc1c2oc3c(C)ccc(C(=O)[*:1])c3nc-2c(C(=O)[*:2])c(N)c1=O; NMeV = CN[CH](C(=O)O)C(C)C; Sar = CNCC(=O)O
Biological target: Regulator of G-protein signaling 4 (Homo sapiens) (UniProt P49798)
Sequence of UniProt P49798 (P49798 whole entry, looked up): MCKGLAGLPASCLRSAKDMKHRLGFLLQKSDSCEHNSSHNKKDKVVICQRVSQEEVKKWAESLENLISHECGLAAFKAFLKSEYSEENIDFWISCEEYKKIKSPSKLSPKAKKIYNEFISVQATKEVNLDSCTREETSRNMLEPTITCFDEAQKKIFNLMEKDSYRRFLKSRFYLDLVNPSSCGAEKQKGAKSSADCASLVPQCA
Assay: Inhibitors of Regulator of G Protein Signaling (RGS) 4: qHTS; also: nearly all actives have a fitted effect of over 75% in size
Details: Transcreener GDP fluorescence polarization, RGS4-accelerated GTP hydrolysis; series mostly up to 114 µM
Procedure, shortened: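 MLSMR compounds (23 nl, pin-transferred) preincubated 10 min at room temperature with a 500nM (2x) first reagent, then RGS4 at 900nM (2x) plus Transcreener GDP mix added; fluorescence polarization (620/688 nm) read before and after 90 min at 30 °C.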
Potency is read from the fitted curve at half-maximal effect; tags tell the direction and shape of the fitted curve.

Row | Structure (SMILES) | Potency
1 | CC(=O)C1=C(O)C(=O)N(Cc2cccnc2)C1c1ccc(O)cc1 (stereo not drawn) | inconclusive: 79.4 µM [inhibitor, single point]
2 | CC1=C(C#N)C(/C=N/OCc2ccc(F)cc2Cl)CC(=O)N1 (stereo not drawn) | inconclusive: 79.4 µM [inhibitor, partial curve, poor fit]
3 | CCN1CCN(c2cc(C)c3cc(NC(=O)c4cc(Cl)ccc4OC)ccc3n2)CC1 | inconclusive: 79.4 µM [inhibitor, partial curve, poor fit]
4 | C=CCNc1nc2c3ccccc3n(C(C)=O)c2s1 | inconclusive: 50.1 µM [inhibitor, partial curve, poor fit]
5 | COc1ccccc1[C@H]1C(c2cccc(C)c2)=NN(c2ccccc2)[C@@H]1CO | inactive
6 | COc1ccc(/C=C2\CCCC3C2=NN(C(=O)c2scnc2C)C3c2ccc(OC)c(OC)c2)cc1OC (stereo not drawn) | inactive
7 | COc1ccc(CC(=O)N2CCN(C(=O)Cc3ccc(OC)cc3)CC2)cc1 | inconclusive: 70.8 µM [inhibitor, single point]
8 | CCN1C(=O)/C(=C/c2ccc(C)o2)N(C)C1=S | inconclusive: 31.6 µM [inhibitor, partial curve, poor fit]
9 | Brc1ccc(-c2nc3ncccn3c2Nc2ccc3c(c2)OCCO3)o1 | inactive
10 | CC(COc1ccc(/C=C/c2ccccc2)cc1)[N+](C)(C)C (stereo not drawn) | inconclusive: 11.9 µM [inhibitor, partial curve, poor fit]
11 | c1ccc(C[n+]2csc3ccccc32)cc1 | inconclusive: 44.7 µM [inhibitor, partial curve, poor fit]
12 | COc1ccc(C(=O)Nc2ccc(N3CCCC3)cc2)cc1OC | inconclusive: 89.1 µM [inhibitor, partial curve, poor fit]
13 | CCN(CC)CCN1C(=O)c2ccccc2NC1c1ccc(Br)cc1 (stereo not drawn) | inactive
14 | O=C(CCN1C(=O)/C(=C\C=C\c2ccccc2)SC1=S)Nc1cccc(C(=O)O)c1 | inconclusive: 44.7 µM [inhibitor, partial curve, poor fit]
15 | CCc1ccc(S(=O)(=O)c2cn(CC)c3cc(N4CCOCC4)c(F)cc3c2=O)cc1 | inactive
16 | COc1cc(S(=O)(=O)NCc2ccncc2)c(OC)cc1Cl | inconclusive: 44.7 µM [inhibitor, partial curve, poor fit]
17 | O=C1NCCCc2c1oc1cc(Br)c(O)c(Br)c21 | inconclusive: 100 µM [inhibitor, single point]
18 | N=C1C(c2nc3ccccc3s2)=C(O)CN1NC(=O)c1c[nH]c2ccccc12 | inconclusive: 50.1 µM [inhibitor, partial curve, poor fit]
19 | Cc1c2oc3c(C)ccc(C(=O)NC4C(=O)NC(C(C)C)C(=O)N5CCCC5C(=O)N(C)CC(=O)N(C)C(C(C)C)C(=O)OC4C)c3nc-2c(C(=O)NC2C(=O)NC(C(C)C)C(=O)N3CCCC3C(=O)N(C)CC(=O)N(C)C(C(C)C)C(=O)OC2C)c(N)c1=O (stereo not drawn) (I: TVP[Sar][NMeV] / II: TVP[Sar][NMeV]; ester I:1-I:C, II:1-II:C; linker I:N-II:N via Actinocin(9to1); configuration not given here) | inconclusive: 8.44 µM [inhibitor, partial curve, poor fit]

Row | Structure (SMILES) | Potency
20 | Cc1nnnn1/C(=C\c1ccccc1)C(=O)OCC(=O)Nc1ccc(Cl)cc1F | inconclusive: 50.1 µM [inhibitor, partial curve, poor fit]
21 | O=C(c1cc2cc(Cl)ccc2[nH]1)N1CCN(C(=O)c2ccco2)CC1 | inconclusive: 44.7 µM [inhibitor, partial curve, poor fit]
22 | Cc1ccc(-c2cc(-c3ccc(F)cc3)nc(N)c2C#N)o1 | inconclusive: 79.4 µM [inhibitor, partial curve, poor fit]
23 | O=C(N[C@@H](Cc1ccccc1)C(=O)CCl)OCc1ccccc1 | active: 3.36 µM
24 | O=C(N/N=C/c1ccccn1)c1ccc(N/N=C/c2ccccn2)cc1 | inactive
25 | O=c1c2cc(NC(=S)NCc3cccnc3)ccc2nc2n1CCCCC2 | inconclusive: 100 µM [inhibitor, partial curve, poor fit]
26 | COc1ccc2nc(SCC(=O)NC3CCCC3)c(C)cc2c1 | inactive
27 | O=C1CC(SC2=NCCS2)C(=O)N1c1ccc(Br)cc1 (stereo not drawn) | inconclusive: 100 µM [inhibitor, partial curve, poor fit]
28 | COCc1cc(CN2CCCC(C(=O)Nc3ccc(-c4ccco4)cc3)C2)ccc1OC (stereo not drawn) | inconclusive: 79.4 µM [inhibitor, partial curve, poor fit]
29 | COc1ccc2c3c(ccc2c1)C(=O)/C(=C/O)CC3 | inconclusive: 79.4 µM [inhibitor, partial curve, poor fit]
30 | NS(=O)(=O)c1ccc(N/N=C/C=C/c2ccccc2[N+](=O)[O-])cc1 | inactive
31 | C=CCn1c(SCC(=O)NCC2CCCO2)nc2scc(-c3ccco3)c2c1=O (stereo not drawn) | inconclusive: 20 µM [inhibitor, full curve, poor fit]
32 | CC(C)CN1C(=O)/C(=C(/C#N)C(=O)NC2CCCCC2)c2ccccc21 | inconclusive: 89.1 µM [inhibitor, partial curve, poor fit]
33 | Cc1cc2c(cc1Cl)N(C(=O)Nc1ccc(Oc3cccnc3C)nc1)CC2 | inactive
34 | Cc1ccc(S(=O)(=O)CC(=O)c2ccc([N+](=O)[O-])cc2)cc1 | inactive
35 | CN(C(=S)NC(=O)C12CC3CC(CC(C3)C1)C2)c1ccc(O)cc1 | inconclusive: 17.8 µM [inhibitor, full curve, poor fit]
36 | CN(C)CCN1C(=O)C(O)=C(C(=O)c2ccco2)C1c1ccccc1F (stereo not drawn) | inactive
37 | C=CCSC1=N/C(=C\c2cc(OCC)c(OC(C)=O)c([N+](=O)[O-])c2)C(=O)S1 | inconclusive: 79.4 µM [inhibitor, partial curve, poor fit]
38 | CNc1ccc(S(=O)(=O)NCC(=O)NCCCc2ccccc2)cc1[N+](=O)[O-] | inconclusive: 50.1 µM [inhibitor, partial curve, poor fit]

Reference: PubChem BioAssay AID504845 (National Center for Advancing Translational Sciences (NCATS), 2011)
